Some of the results follow.
B1: chr7:44244176:44244177:+_ENSG00000106636_ENST00000223369|hu_mus|hu_hu_hu_mus_False|1_1 (ssRNA)
RNA: GGGAGUUCUACAGUCCGACGAUCACUGUCGCUCCGGACGUAGACAUGGCAAAGAUACUCUUGUUCUUUGACAGAAGCUCUGCUGCCUUUCCCCGAGCGUUCCACAAUCAGUUGACUUGUAAAGGUCAUGAAUUCCUGAACGCUCAACAGAGGAUUGAGCAUCA
B2: chr5:173383253:173383254:+_ENSG00000113742_ENST00000334035|hu_mus|FALSE|FALSE (ssRNA)
RNA: GGGAGUUCUACAGUCCGACGAUCCAAAAUACCUAUGUUGUAGGUUGUUCUUUUCAUUCUACCACUGAUAGUUACACACUGCUGUGCAGGACAUGCCAGUGUGAAGAGGCUGAGGAAGAGUUGGAAUUAACAAAAGAGGGCACUCAACAGAGGAUUGAGCAUCA
B3: chr11:51926749:51926750:+_ENSMUSG00000020349_ENSMUST00000020608|perfect_dup|FALSE|FALSE (ssRNA)
RNA: GGGAGUUCUACAGUCCGACGAUCGUCAACAUAAUCUCCCAUAAACAAGUAAUUUGUAUCUGGUGAUUUGCCACCAAUUCUAAACAGUUCCAUGAGAUCAUGAAAUUGCCCAUGCACAUCUCCACAGACAGUAACUGGACAUCGCAACAGAGGAUUGAGCAUCA
B4: 46243500_46243879_2085_3pUTR_ENSG00000189079_ENST00000334344|human|control|control (ssRNA)
RNA: GGGAGUUCUACAGUCCGACGAUCUGGUUGGCAACAGGAGUCCUCUGAAAAUGGUUUCCUAUGGUUUGUGAUCCAUGAGGGAUUCCUGCAGGUGAAGGAGCAGGAGAUACAUCAGGAACAGAAUCAACACGAACAACAGAAGUACAACAGAGGAUUGAGCAUCA
B5: chr1:58468927:58468928:-_ENSMUSG00000026034_ENSMUST00000148330|mus_mus|mus_mus_mus_hu_False|38_78 (ssRNA)
RNA: GGGAGUUCUACAGUCCGACGAUCAAUUACUGAAAAAGAUGUUCAUUACCUUAGCUAGGCCAUGUAUGAACCAAAUUACCCAAACAAAAUAAACAUGUUUACAAAUUAAUGUUAAGAAUUUACAAAGCUGUACAAAAUAACUUACAACAGAGGAUUGAGCAUCA
B6: chr4:42003652:42003653:+_ENSG00000014824_ENST00000513699|hu_hu|FALSE|FALSE (ssRNA)
RNA: GGGAGUUCUACAGUCCGACGAUCGGUACCAAUAUAUGGAUGACUACAGGGAACCAUGUUUGAAAAGCUUCCAAAUGUCACUAAAUUCUGCCACUCCUGGCGGUCGCUGGGAUUACAGGCCGCCGCCCUGCAUCGCAGACGGAGCAACAGAGGAUUGAGCAUCA
B7: chr15:79189513:79189514:+_ENSG00000185787_ENST00000426013|hu_hu|motif|central (ssRNA)
RNA: GGGAGUUCUACAGUCCGACGAUCCUUUUAUUUUUUCUCUGUUUAAAAUCAAACAGAAAACAAACAUCAAUUGUUAUACACGGACAUCUUCAAAGCACAUCGUUUGUACAAGAGAUAGACUAAGAACAAAAAUGUGUUUACGGACAACAGAGGAUUGAGCAUCA
B8: chr22:19452774:19452775:-_ENSG00000070010_ENST00000399523|hu_hu|hu_hu_hu_mus_False|1_98 (ssRNA)
RNA: GGGAGUUCUACAGUCCGACGAUCCUUCUCAUUGUAGUUGAUGGCAAUCACAUCUCCAGUCGUCAGACAGGCGAAGUUUCUCAAUGCAUUUUCUAAUACCGCUUUAGGGUUGGUAAUAUCCAGGAAGUCUGGGCUCUGAGGUUGCAACAGAGGAUUGAGCAUCA
B9: chr3:119450855:119450856:-_ENSMUSG00000028134_ENSMUST00000029780|mus_hu|mus_mus_mus_hu_False|48_58 (ssRNA)
RNA: GGGAGUUCUACAGUCCGACGAUCUGUGGUGCCACUAAGAGGAGUAUUUGCUGUCUGGACAGCUGUCACAGCUUGAAGAACUACUUGCGCACGUUGGUUUAAUGUAUUAUCUGUCUUUAGUUCUUUGUGAUUCGAGUACUGGAUCAACAGAGGAUUGAGCAUCA
B10: chr7:151048522:151048523:+_ENSG00000013374_ENST00000566856|hu_mus|hu_hu_hu_mus_True|1_78 (ssRNA)
RNA: GGGAGUUCUACAGUCCGACGAUCCUGUUUCUUAUUUAUUACGAUCUUGAUGUAAUUUUCUUGAAGUCCGAAAGUUUCAGCUAUUUGACACCUCAGGUCUCUACCAGUGACAUGCAAGCGGGUCUCCAACAAGCUUUUCCUAUCCAACAGAGGAUUGAGCAUCA
B11: chrX:50293416:50293417:+_ENSMUSG00000025626_ENSMUST00000078944|mus_hu|motif|central (ssRNA)
RNA: GGGAGUUCUACAGUCCGACGAUCUUUCUUUUUACUUUUAGGUGAUGAGGGCUCCAGUUCAUGUUCAUUAAAACUUUCUUCGGAAUCAGCUUCGGAGUUAUGUGCAGUUUUCUUGUGUUUUCGGCAAUAGACCAUGUAAAUUCCCAACAGAGGAUUGAGCAUCA
B12: chr10:33214929:33214930:-_ENSG00000150093_ENST00000302278|hu_hu|hu_hu_hu_mus_True|38_88 (ssRNA)
RNA: GGGAGUUCUACAGUCCGACGAUCAACAAGUUCAUUGAAAAACUCUCCUUUAUUAGUAAGACUAAGCACAUUUUUGUAGCUAAAUGGGCUGGUGCAGUUCUGUUCACUUGUACAAGGAUUUCUUAGCUUUGCUGGGGUUGUGCUCAACAGAGGAUUGAGCAUCA
B13: chr5:128448638:128448639:+_ENSG00000066583_ENST00000173527|hu_mus|hu_hu_hu_mus_False|8_28 (ssRNA)
RNA: GGGAGUUCUACAGUCCGACGAUCGGCACUCGCCUUAAUUAGGUUCUGAAUUUCCUUGAACUUCGGGUGGUCUUUGUCAGCCACCAGCUGUAGGAGGACAGCCUCACUCGUGGUCACGAUGAUCCCAGUUCGAGCGAGACGCUCCAACAGAGGAUUGAGCAUCA
B14: chr17:46962767:46962768:-_ENSMUSG00000036568_ENSMUST00000040624|mus_hu|FALSE|FALSE (ssRNA)
RNA: GGGAGUUCUACAGUCCGACGAUCAACAGGCACAUGCGUCACCCCUAUAGGCUGCAGCGUCUGACCUGAGUAAUUAGAAACAUUAGAAGCCUGAGUAAAGGAUGCUGAUGAAGAAGGAUGAAGCUGAGCUUGUGCAAACUGUUGCAACAGAGGAUUGAGCAUCA
B15: chr8:104447970:104447971:+_ENSG00000164934_ENST00000297579|hu_hu|hu_hu_hu_mus_False|1_88 (ssRNA)
RNA: GGGAGUUCUACAGUCCGACGAUCAUACACUUCCCUGCUUCGGCUCUUGUCUACAGGAAAGAUUCUAAUAGACUUAUCAAAGCUGGCAGACACAAAUUCCUUCCCAGUGGGAGAGUAGUCCACAUCAAGUACUGCAGAUACAUGCAACAGAGGAUUGAGCAUCA
B16: chr5:21408736:21408737:-_ENSMUSG00000042453_ENSMUST00000161356|mus_hu|FALSE|FALSE (ssRNA)
RNA: GGGAGUUCUACAGUCCGACGAUCGUUGACAGAGUUGUAGAUGGUGGCUUCAUGGAACUGGAAAGGGGAGCAGCCAAUGCUGUUAGAAGAGGAAGGAAGGCACUGGGUCUGUACGAGCUGCCAGGAAUCCGAUCUUGCAUCCUUCAACAGAGGAUUGAGCAUCA
B17: chr16:94664741:94664742:+_ENSMUSG00000040785_ENSMUST00000117648|mus_hu|mus_mus_mus_hu_False|38_78 (ssRNA)
RNA: GGGAGUUCUACAGUCCGACGAUCUGGUACUGAUCUUGGUAGCUGAUAUUCAGGAGAAAUGUUGGCCAAGGGUGUAUAUAUGCUGGUGUACUGGGGCAGGCUAGGUAACACGUUUAUGUAUGCUGGCGGUGUCUGGGUGAUAUCCAACAGAGGAUUGAGCAUCA
B18: chr1:135975629:135975630:-_ENSMUSG00000020423_ENSMUST00000020692|mus_mus|FALSE|FALSE (ssRNA)
RNA: GGGAGUUCUACAGUCCGACGAUCGAAACCCACGGCGGCGGCGAUCUCCGGGAGCAUGUCGGUUCUCUUCCCGUGGCUCAUACCGGUGGCUGAGGAAGUAGCUGUAUUAGAACGAUGAUGACGGUCUGGCCACCUCUCGGGCUCCAACAGAGGAUUGAGCAUCA
B19: 72952293_72953195_3532_CDS_ENSMUSG00000033487_ENSMUST00000089017|mouse|control|control (ssRNA)
RNA: GGGAGUUCUACAGUCCGACGAUCAUCUUUUCCCACCAUAACUUGAAGAUUAUAAAUAACUGGGUCACCCUUCAUUGGCUGUAAAUAUUCCCAUGUAAUUUCACAAAUGUGAUCAUUUAUUUUCUCUAUUUUGGGGGCUUUCAACAACAGAGGAUUGAGCAUCA
B20: chr4:184614817:184614818:+_ENSG00000168538_ENST00000334690|hu_hu|FALSE|FALSE (ssRNA)
RNA: GGGAGUUCUACAGUCCGACGAUCGGUGAGCUUCACAUCUCUGAUUUGGGUCUUUUCAUGGGACUGAACAGUCACAACCAAACAAUACAUUUCAUUAGUCAGUGCAGGGGGUUCAUGUAGCAGAUGUACAGAAAUGUUUGGGACCAACAGAGGAUUGAGCAUCA
B21: 36958300_36958420_972_CDS_ENSMUSG00000029190_ENSMUST00000132383|mouse|control|control (ssRNA)
RNA: GGGAGUUCUACAGUCCGACGAUCAGUACCUGCUGCGAGGUAUGUUCUGUGGAUAUUACUGUUACUGAUACACAGACCACGCACAGAGUCAGACAAGUCUUCCACUGCCUCUGCUGUCAGAGUACUUGUAUCUUCCCUGUUUCGCAACAGAGGAUUGAGCAUCA
B22: chr15:58001004:58001005:+_ENSG00000255529_ENST00000299638|hu_mus|FALSE|FALSE (ssRNA)
RNA: GGGAGUUCUACAGUCCGACGAUCGUCUACAUCGGUGUCAGCUCUUGUGGUUGCUUUUUGCCUUAGCUUACAGUCUACACUAACAGGAUGAAACAGUUCACUUCUCCCUCUAACCUCUUCACGUUCUGAAAUGGCAGCUUUCAGCAACAGAGGAUUGAGCAUCA

Molecular target: T1, UNK ZnF1-3 (human, UniProt Q9C0B0 31-174)
T1 sequence: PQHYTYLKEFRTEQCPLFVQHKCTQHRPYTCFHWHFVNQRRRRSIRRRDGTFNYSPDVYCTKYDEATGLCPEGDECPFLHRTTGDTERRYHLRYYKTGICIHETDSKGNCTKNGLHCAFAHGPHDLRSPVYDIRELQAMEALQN
Experiment: nsRBNS (natural sequence RNA bind-n-seq); RBNS binding buffer (assumed for nsRBNS): 25 mM Tris pH 7.5, 150 mM KCl, 3 mM MgCl2, 0.01% Triton X-100, 500 ug/ml BSA, 20 U/ml SUPERase-In, 4 C; UNK is unkempt and MSI1 is Musashi-1; names of the RNAs are library labels; protein concentration not given here; high values mean tight binding

In order of falling binding signal:
1. B20  2.64 enrichment R
2. B16  1.58 enrichment R
3. B14  1.51 enrichment R
4. B4  1.48 enrichment R
5. B18  1.31 enrichment R
6. B19  1.14 enrichment R
7. B3  1.07 enrichment R
8. B2  1.06 enrichment R
9. B17  1.06 enrichment R
10. B15  0.853 enrichment R
11. B8  0.827 enrichment R
12. B6  0.804 enrichment R
13. B10  0.798 enrichment R
14. B9  0.715 enrichment R
15. B11  0.681 enrichment R
16. B12  0.668 enrichment R
17. B5  0.667 enrichment R
18. B13  0.657 enrichment R
19. B21  0.618 enrichment R
20. B22  0.568 enrichment R
21. B1  0.501 enrichment R
22. B7  0.334 enrichment R

Reference: article PMC12136788
